In the supplement of paper PMC4967469:
IC50 is the fitted dose that halves viability relative to control wells, and lower means more sensitive; a limit (>, <) means that the fit lies beyond the doses tested. The AUC spans the tested range (256-fold, ending at the top dose) of the same fit; the more sensitive the line, the further below 1. The top dose, if marked as inferred, is not printed in the source and was worked back from the curve model.

Tests used:
SB590885 = compound: CN(C)CCOc1ccc(-c2nc(-c3ccncc3)c(-c3ccc4c(c3)CC/C4=N\O)[nH]2)cc1 [SB590885]; experiment: Viability of human cancer cell lines after 72 h of drug (GDSC screen); details: top dose 5 µM; top dose inferred
Protocol: (§1)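 Human cancer cell lines in 384-well plates, medium with 10% serum, drug for 72 h over a 256-fold dose range (nine 2-fold or five 4-fold steps up to the top dose). Adherent lines were fixed and stained with the nucleic acid dye Syto60, suspension lines read with resazurin; signal relative to control wells, capped at 0 and 100%. One two-parameter sigmoid per drug and line, fitted in a mixed model over all curves with the slope shared within a line.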

PD-173074 = compound: CCN(CC)CCCCNc1ncc2cc(-c3cc(OC)cc(OC)c3)c(NC(=O)NC(C)(C)C)nc2n1 [PD-173074]; experiment: as above; details: top dose 2 µM; top dose inferred
Protocol: as §1

Cell Line | AUC (SB590885) | IC50 (SB590885) | AUC (PD-173074) | IC50 (PD-173074)
COR-L23 (large cell lung carcinoma, adherent) | 0.962 | > 5000 nM | 0.987 | > 2000 nM
COR-L321 (lung, suspension) | 0.979 | > 5000 nM | 0.96 | > 2000 nM
CP50-MEL-B (melanoma, adherent) | 0.695 | 1100 nM | 0.979 | > 2000 nM
CRO-AP2 (B-cell lymphoma, suspension) | 0.978 | > 5000 nM | 0.907 | > 2000 nM
CS1 (bone, adherent) | 0.919 | > 5000 nM | 0.984 | > 2000 nM
Ca9-22 (head and neck, adherent) | 0.98 | > 5000 nM | 0.964 | > 2000 nM
CaR-1 (large intestine, adherent) | 0.956 | > 5000 nM | 0.978 | > 2000 nM
Calu-3 (lung adenocarcinoma, adherent) | 0.983 | > 5000 nM | 0.982 | > 2000 nM
Caov-4 (ovary, adherent) | 0.98 | > 5000 nM | 0.98 | > 2000 nM
Capan-2 (pancreas, adherent) | 0.985 | > 5000 nM | 0.984 | > 2000 nM
ChaGo-K-1 (non-small cell lung carcinoma, adherent) | 0.974 | > 5000 nM | 0.979 | > 2000 nM
D-423MG (glioma, adherent) | 0.981 | > 5000 nM | 0.937 | > 2000 nM
D-566MG (glioma, adherent) | 0.953 | > 5000 nM | 0.961 | > 2000 nM
DAN-G (pancreas, adherent) | 0.991 | > 5000 nM | 0.987 | > 2000 nM
DBTRG-05MG (glioma, adherent) | 0.908 | > 5000 nM | 0.98 | > 2000 nM
DIFI (large intestine, adherent) | 0.988 | > 5000 nM | 0.988 | > 2000 nM
DK-MG (glioma, adherent) | 0.978 | > 5000 nM | 0.975 | > 2000 nM
DMS-273 (small cell lung carcinoma, adherent) | 0.985 | > 5000 nM | 0.974 | > 2000 nM
DOK (head and neck, adherent) | 0.882 | > 5000 nM | 0.936 | > 2000 nM
DOV13 (ovary, adherent) | 0.984 | > 5000 nM | 0.973 | > 2000 nM
DU-145 (prostate, adherent) | 0.94 | > 5000 nM | 0.746 | 701 nM
Detroit562 (head and neck, adherent) | 0.986 | > 5000 nM | 0.988 | > 2000 nM
DoTc2-4510 (cervix, adherent) | 0.963 | > 5000 nM | 0.956 | > 2000 nM
EBC-1 (lung squamous cell carcinoma, adherent) | 0.978 | > 5000 nM | 0.983 | > 2000 nM
ECC10 (stomach, suspension) | 0.985 | > 5000 nM | 0.58 | 210 nM

Cell Line | AUC (SB590885) | IC50 (SB590885) | AUC (PD-173074) | IC50 (PD-173074)
EFM-192A (breast, adherent) | 0.949 | > 5000 nM | 0.976 | > 2000 nM
EFO-21 (ovary, adherent) | 0.979 | > 5000 nM | 0.98 | > 2000 nM
EFO-27 (ovary, adherent) | 0.981 | > 5000 nM | 0.948 | > 2000 nM
EGI-1 (biliary tract, adherent) | 0.96 | > 5000 nM | 0.963 | > 2000 nM
EMC-BAC-1 (lung adenocarcinoma, adherent) | 0.961 | > 5000 nM | 0.965 | > 2000 nM
EN (endometrium, adherent) | 0.984 | > 5000 nM | 0.984 | > 2000 nM
ESO26 (oesophagus, adherent) | 0.989 | > 5000 nM | 0.989 | > 2000 nM
ESO51 (oesophagus, semi-adherent) | 0.93 | > 5000 nM | 0.945 | > 2000 nM
ESS-1 (endometrium, adherent) | 0.99 | > 5000 nM | 0.974 | > 2000 nM
EW-7 (Ewing sarcoma, semi-adherent) | 0.982 | > 5000 nM | 0.954 | > 2000 nM
FADU (head and neck, adherent) | 0.963 | > 5000 nM | 0.988 | > 2000 nM
FLO-1 (oesophagus, adherent) | 0.973 | > 5000 nM | 0.958 | > 2000 nM
FTC-133 (thyroid, adherent) | 0.98 | > 5000 nM | 0.959 | > 2000 nM
FU-OV-1 (ovary, adherent) | 0.981 | > 5000 nM | 0.97 | > 2000 nM
G-292 Clone A141B1 (osteosarcoma, adherent) | 0.959 | > 5000 nM | 0.647 | 407 nM
G-361 (melanoma, adherent) | 0.889 | > 5000 nM | 0.988 | > 2000 nM
G-401 (kidney, adherent) | 0.968 | > 5000 nM | 0.84 | 1580 nM
G-402 (soft tissue, adherent) | 0.965 | > 5000 nM | 0.897 | > 2000 nM
GAMG (glioma, adherent) | 0.895 | > 5000 nM | 0.847 | 1580 nM
GMS-10 (glioma, adherent) | 0.988 | > 5000 nM | 0.988 | > 2000 nM
H4 (glioma, adherent) | 0.948 | > 5000 nM | 0.95 | > 2000 nM
H290 (mesothelioma, adherent) | 0.989 | > 5000 nM | 0.977 | > 2000 nM
H513 (mesothelioma, semi-adherent) | 0.985 | > 5000 nM | 0.985 | > 2000 nM
H2369 (mesothelioma, adherent) | 0.987 | > 5000 nM | 0.97 | > 2000 nM
H2373 (mesothelioma, adherent) | 0.983 | > 5000 nM | 0.978 | > 2000 nM

Cell Line | AUC (SB590885) | IC50 (SB590885) | AUC (PD-173074) | IC50 (PD-173074)
H2461 (mesothelioma, adherent) | 0.983 | > 5000 nM | 0.983 | > 2000 nM
H2591 (mesothelioma, adherent) | 0.981 | > 5000 nM | 0.761 | 920 nM
H2595 (mesothelioma, adherent) | 0.933 | > 5000 nM | 0.959 | > 2000 nM
H2731 (mesothelioma, adherent) | 0.984 | > 5000 nM | 0.95 | > 2000 nM
H2795 (mesothelioma, adherent) | 0.921 | > 5000 nM | 0.543 | 163 nM
H2869 (mesothelioma, adherent) | 0.984 | > 5000 nM | 0.977 | > 2000 nM
H3118 (head and neck, adherent) | 0.957 | > 5000 nM | 0.964 | > 2000 nM
H3255 (lung adenocarcinoma, adherent) | 0.955 | > 5000 nM | 0.976 | > 2000 nM
HARA (lung squamous cell carcinoma, adherent) | 0.956 | > 5000 nM | 0.952 | > 2000 nM
HCC38 (breast, adherent) | 0.986 | > 5000 nM | 0.97 | > 2000 nM
HCC202 (breast, adherent) | 0.933 | > 5000 nM | 0.968 | > 2000 nM
HCC1143 (breast, adherent) | 0.98 | > 5000 nM | 0.931 | > 2000 nM
HCC1395 (breast, adherent) | 0.985 | > 5000 nM | 0.874 | > 2000 nM
HCC1419 (breast, adherent) | 0.935 | > 5000 nM | 0.981 | > 2000 nM
HCC1428 (breast, adherent) | 0.987 | > 5000 nM | 0.988 | > 2000 nM
HCC1569 (breast, adherent) | 0.944 | > 5000 nM | 0.884 | > 2000 nM
HCC1806 (breast, adherent) | 0.989 | > 5000 nM | 0.986 | > 2000 nM
HCC1937 (breast, adherent) | 0.979 | > 5000 nM | 0.985 | > 2000 nM
HCC1954 (breast, adherent) | 0.98 | > 5000 nM | 0.968 | > 2000 nM
HCC-15 (lung squamous cell carcinoma, adherent) | 0.934 | > 5000 nM | 0.976 | > 2000 nM
HCC-44 (lung adenocarcinoma, adherent) | 0.973 | > 5000 nM | 0.941 | > 2000 nM
HCC-56 (large intestine, adherent) | 0.976 | > 5000 nM | 0.953 | > 2000 nM
HCC-78 (lung adenocarcinoma, adherent) | 0.975 | > 5000 nM | 0.963 | > 2000 nM
HCC-366 (non-small cell lung carcinoma, adherent) | 0.988 | > 5000 nM | 0.988 | > 2000 nM
HCT-15 (large intestine, adherent) | 0.987 | > 5000 nM | 0.987 | > 2000 nM
